# Data reported in PubChem BioAssay AID924 (National Center for Advancing Translational Sciences (NCATS), 2007).
# Several values for one entry are separate records, joined by “and”; a condition that tells them apart may be missing. Equal values may be shown once. The whole screen tested about 130,000 compounds, of which about 1,200 (0.92%) were called active. The shares of active, inactive and inconclusive entries below differ from those in the screen. The call rests on the fitted dose curve; in most records, active means well fitted cell-killing curve with a large enough effect; inconclusive means small, poorly fitted or top-dose-only effect; inactive means no such curve, though single readings can be large or run the other way. Potencies of inconclusive entries are doubtful fits and often do not repeat.
# Experiment: qHTS Screen for Compounds that Selectively Target Cancer Cells with p53 Mutations: Cytotoxicity of p53ts Cells at the Permissive Temperature; further: nearly all actives have a fitted effect of over 55% in size;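 on activity change, negative = cytotoxicity: 0% = DMSO and -100% = full killing by reference compound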
# Conditions: H1299-p53A138V at 32C, ATP luminescence viability, 24 h; activity change, negative = cytotoxicity: at 46.1 µM (top of the series)
# Procedure, shortened: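 ATP-content luminescence (ATPlite) read-out after 24 h compound exposure at 32C in H1299-p53A138V cells (600/well). Tested up to 46 uM. Normalized to DMSO (0%) and 100 uM tamoxifen (100% killing); Hill-fit AC50.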
# Potency means the concentration at half of the fitted maximal effect; tags describe the fitted curve by direction and shape.
SMILES,Potency,"activity change, negative = cytotoxicity"
O=C1c2oc3ccc(Cl)cc3c(=O)c2C(c2cccnc2)N1Cc1ccco1 (centres undefined),"inconclusive: 2.51 µM [cytotoxic, full curve]",–
C=C1C(=O)C=C2CN(C(=O)c3ccccc3)[C@@](Cc3ccc(OC)cc3)(C(=O)OC)[C@@H]12,active: 3.16 µM,–
Cc1ccccc1NC(=O)CN1C(=O)CCn2nc(-c3cccn3C)cc21,–,inactive: -5.17%
Cc1nc2ccccc2n1CCCOc1ccccc1,"inconclusive: 17.8 µM [cytotoxic, single point]",–
CCc1ccc(NC(=O)c2cc(C)on2)cc1,"inconclusive: 12.6 µM [cytotoxic, partial curve]",–
CCCCOc1ccc(C(=O)Nc2cc(C)c(OCC(=O)N3CCOCC3)c(C)c2)cc1,"inconclusive: 15.8 µM [cytotoxic, single point]",–
Cc1cc(C)cc(N2CCn3c2nc2c3c(=O)n(CCc3ccccc3)c(=O)n2C)c1,"inconclusive: 0.794 µM [cytotoxic, full curve]",–
CCOC(=O)Cc1csc(-n2sc3ccccc3c2=O)n1,"inconclusive: 31.6 µM [cytotoxic, single point]",–
COc1ccc(S(=O)(=O)Cc2ccc(C(=O)NC3CCCCC3)o2)cc1,"inconclusive: 0.251 µM [cytotoxic, full curve, poor fit]",–
Cc1ccc2nc(NC(=O)c3cccs3)sc2c1,"inconclusive: 10 µM [cytotoxic, partial curve]",–
CCCCn1c(SCC(=O)OC)nc2c1c(=O)n(C)c(=O)n2C,–,inactive: 10%
O=C1c2[nH]nc(-c3ccccc3O)c2C(c2ccc(F)cc2)N1Cc1ccco1 (centres undefined),–,inactive: 27.1%
CCCN(CCC)S(=O)(=O)c1ccc(C(=O)Nc2nnc(-c3cccc(OC)c3)o2)cc1,"inconclusive: 1.26 µM [cytotoxic, partial curve]",–
Cc1nc2ccccc2n1CCc1nc2c3ccccc3nc(SCC(=O)Nc3ccc(C(C)C)cc3)n2n1,"inconclusive: 31.6 µM [cytotoxic, single point]",–
Cc1ccc(NC(=O)CSc2[nH]c(=O)ncc2C)cc1,active: 0.1 µM,–
CCCc1ccc(NC(=O)C2CCN(c3cnccn3)CC2)cc1,"inconclusive: 3.98 µM [cytotoxic, partial curve, poor fit]",–
COc1ccc(-n2c(=O)c3ccc(C(=O)NCc4ccc(C)cc4)cc3n(CC(=O)Nc3ccc(C)cc3)c2=O)cc1,"inconclusive: 15.8 µM [cytotoxic, single point]",–
O=c1cc(-c2ccc(O)cc2)oc2ccc(O)cc12,"inconclusive: 15.8 µM [cytotoxic, partial curve]",–
CCOC(=O)c1cc(-c2ccccc2)n(CCCC(=O)Nc2ccc(C)cc2C)c1C,"inconclusive: 25.1 µM [cytotoxic, partial curve, poor fit]",–
O=c1[nH]c(SCc2ccc(F)cc2)nc2c1cnn2-c1ccc(F)cc1,–,inactive: 1.44%
COc1ccc(-c2noc(-c3ccc(NC4CCCC4)c([N+](=O)[O-])c3)n2)cc1,–,inactive: 0.837%
COc1ccc(-c2cc(=O)c3cc(OC)ccc3o2)cc1,"inconclusive: 0.794 µM [cytotoxic, full curve]",–
Cc1ccc(Cl)cc1NC(=O)CN(C)S(=O)(=O)c1ccc2c(c1)n(C)c(=O)c(=O)n2C,"inconclusive: 31.6 µM [cytotoxic, single point]",–

SMILES,Potency,"activity change, negative = cytotoxicity"
O=C(NCc1ccco1)c1cc(-c2cccs2)on1,"inconclusive: 6.31 µM [cytotoxic, full curve]",–
COc1cccc(-c2cc(=O)c3ccccc3o2)c1N,active: 7.94 µM,–
Oc1c(I)cc(Cl)c2cccnc12,"inactive and inconclusive: 31.6 µM [cytotoxic, single point]",–
CCOc1ccc(-c2cc(NC(=O)Cn3ncc4c3-c3ccccc3OC4)on2)cc1OCC,"inconclusive: 20 µM [cytotoxic, single point]",–
C=CC(C1=CC(=O)C(OC)=CC1=O)c1ccc(OC)cc1 (centres undefined),–,inactive: -9.44%
COc1ccc2nc(N3CCCC(O)C3)c(C#N)cc2c1 (centres undefined),"inconclusive: 12.6 µM [cytotoxic, partial curve]",–
CC(C)Oc1ccc(CNS(=O)(=O)c2cnc(N)nc2)cc1,"inconclusive: 6.31 µM [cytotoxic, single point]",–
Cc1ccc(NC(=O)/C=C/c2ccccc2)c(Br)c1,"inconclusive: 6.31 µM [cytotoxic, full curve, poor fit]",–
COc1ccccc1C(=O)NC(=S)Nc1ccc(N2CCCC2)cc1,"inconclusive: 0.1 µM [cytotoxic, full curve, poor fit]",–
CC(NC(=O)CNC(=O)OCc1ccccc1)C(=O)N1CC(O)CC1C(=O)OCc1ccccc1 (centres undefined),"inconclusive: 7.94 µM [cytotoxic, partial curve]",–
CCn1c(C(=O)NCc2cccc(Br)c2)cc2oc3ccccc3c21,"inconclusive: 2 µM [cytotoxic, full curve]",–
CCc1ccc(-c2nc3ccc(Br)cc3c(C(=O)O)c2C)s1,"inconclusive: 15.8 µM [cytotoxic, single point]",–
Cc1ccc(OC(=O)c2cc(-c3ccc4c(c3)OCCO4)on2)c(C)c1,active: 20 µM,–
CCOC(=O)Cc1csc(NC(=O)CSc2nnc(-c3ccc(F)cc3)o2)n1,"inconclusive: 12.6 µM [cytotoxic, partial curve]",–
O=C1c2ccc(O)c(O)c2C(=O)c2c(O)ccc(O)c21,"inconclusive: 5.01 µM [cytotoxic, partial curve]",–
COc1ccccc1-c1nc(-c2ccc(Br)o2)no1,"inconclusive: 0.0158 µM [cytotoxic, full curve, poor fit]",–
O=C(O)COc1cccc(NC(=O)C2CCCO2)c1 (centres undefined),"inconclusive: 31.6 µM [cytotoxic, single point]",–
Cc1ccccc1OCc1ccc(-c2nc(C#N)c(NCCCN(C)C)o2)o1,"inconclusive: 5.62 µM [cytotoxic, single point]",–
Cc1ccc(C(=O)Nc2ccc(Cl)c(-c3nc4ncccc4o3)c2)c(C)c1,"inconclusive: 20 µM [cytotoxic, partial curve]",–
CCOC(=O)C1C(C)N=C2SCC(=O)N2C1c1cccc(Br)c1 (centres undefined),"inconclusive: 31.6 µM [cytotoxic, single point]",–
O=[N+]([O-])c1ccc2ncccc2c1CCc1c([N+](=O)[O-])ccc2ncccc12,–,inactive: 1.99% [at 9.22 µM]
COc1ccc(-c2nn(C)c3sc(C(=O)Nc4cccc(F)c4)cc23)cc1OC,–,inactive: -6.32%
C=CCn1cnc2c(c1=O)c1nc3ccccc3nc1n2/N=C/c1ccccn1,–,inactive: -4.15%

SMILES,Potency,"activity change, negative = cytotoxicity"
COc1cc(C2CC(=O)c3c([nH]c(C(=O)OCCOC(C)C)c3C)C2)cc(OC)c1OC (centres undefined),"inconclusive: 31.6 µM [cytotoxic, single point]",–
O=c1c2ccccc2nc2ccc(NCc3ccco3)nn12,"inconclusive: 31.6 µM [cytotoxic, single point]",–
COC(=O)c1cc2occc2n1CC(=O)Nc1cc(OC)cc(OC)c1,"inconclusive: 0.316 µM [cytotoxic, full curve, poor fit]",–
O=C1Nc2ccccc2C1=Nc1ccc(-c2nnc3n2CCCCC3)cc1,–,inactive: 9.67%
CCOc1ccc2nc(C)cc(Nc3ccccc3OCC)c2c1,–,inactive: -29.7%
CC(=O)c1ccc(S(=O)(=O)Nc2cccc(-c3ccc(N4CCCCC4)nn3)c2)cc1,active: 10 µM,–
Oc1ccccc1-c1cc(-c2cccc(F)c2)n[nH]1,"inconclusive: 15.8 µM [cytotoxic, single point]",–
Cc1cccc(NC(=O)c2nc(S(C)(=O)=O)ncc2Cl)c1,"inconclusive: 25.1 µM [cytotoxic, single point]",–
COc1cccc(C(=O)/C=C/Nc2cc(C)ccc2O)c1,"inconclusive: 12.6 µM [cytotoxic, partial curve]",–
O=C(Nc1ccccc1NC(=O)c1ccco1)c1ccco1,–,inactive: -5.54%
CC(=O)O[C@@]1(C(C)=O)CCC2C3C=C(C)C4=CC(=O)CCC4(C)C3CCC21C (some centres undefined),–,inactive: 15.6%
Cc1cccc(OCC(=O)OCc2cc(=O)n3nc(C4CCCCC4)sc3n2)c1,–,inactive: -3.43%
COc1ccc(C(=O)COC(=O)c2cccc(NC(=O)c3ccc(OC)c(OC)c3)c2)cc1,"inconclusive: 31.6 µM [cytotoxic, single point]",–
COc1ccc(-c2cn3c4c(sc3n2)CCCC4)cc1,active: 6.31 µM,–
Cc1ccc(CN2C(=O)C(O)(c3c[nH]c4ccccc34)c3cc(Cl)ccc32)cc1 (centres undefined),"inconclusive: 31.6 µM [cytotoxic, single point]",–
c1csc(CNc2ccnc(-c3ccc4c(c3)OCO4)n2)c1,active: 12.6 µM,–
COc1ccc(C2c3c(-c4c(C)cc(C)cc4O)n[nH]c3C(=O)N2Cc2ccco2)cc1 (centres undefined),"inconclusive: 31.6 µM [cytotoxic, single point]",–
CCOC(=O)c1cccc(NC(=O)c2ccc3c(Cl)c4c(nc3c2)CCC4)c1,"inconclusive: 2.51 µM [cytotoxic, partial curve]",–
Nc1cccc(-c2cn3ccsc3n2)c1,"inconclusive: 10 µM [cytotoxic, partial curve, poor fit]",–
Cc1cc(C(=O)CNCc2ccco2)c(C)n1-c1ccc(F)cc1,"inconclusive: 31.6 µM [cytotoxic, single point]",–
COCCN1C(=O)c2[nH]nc(-c3ccccc3O)c2C1c1ccc(Cl)c(Cl)c1 (centres undefined),"inconclusive: 25.1 µM [cytotoxic, single point]",–
COc1ccccc1N1CCN(c2ncccc2-c2nc(-c3ccc(Cl)cc3)no2)CC1,–,inactive: -10.3%
COc1cc(C(=O)N2CCC(c3nc4ccccc4o3)CC2)cc(OC)c1OC,–,inactive: 1.61%
